Results from PubChem BioAssay AID463173 (ICCB-Longwood Screening Facility, Harvard Medical School, 2010).
Hit rate of the full screen: of about 52,000 compounds, about 1,700 (3.3%) were called active. Rule as the data show it: active = survival mostly below about 52% (no sharp cut-off); inactive = mostly above about 56%. The list shows a part of the results.

The compounds below were run on Wild type (assay: S. aureus survival, RN4220 and DeltatarO strains – OD600, teichoic acid synthesis inhibitors, primary screen (AID 463173)). Conditions: S. aureus RN4220 wild type/DeltatarO growth, OD600, 18 h, stronger effect = lower value, screened at 18.75 µg/mL (by protocol).

With `Cc1nn2c(C)c(C(=O)NCCc3ccccc3)cnc2c1-c1ccccc1` as the compound, how does the survival read?
Its survival is inactive: 55%.

For `CCOC(=O)c1ccc(NC(=O)CC(=O)Nc2ccc3nc4n(c(=O)c3c2)CCCCC4)cc1`, which survival is on record?
Its survival is inactive: 91%.

For `Cc1ccccc1NC(=O)/C(C#N)=C/c1ccc(Cl)cc1Cl`, which survival is on record?
Its survival is inactive: 34%.

`CCc1ccc(NCc2cc3cc4c(cc3n(CC(=O)Nc3ccccc3C)c2=O)OCCO4)cc1` was tested. Which survival did it give?
The survival was inactive: 66%.

Which survival does the source give for `CCCOc1ccc(C(=O)Nc2cc3c(cc2N2CCCCC2)n(C)c(=O)n3C)cc1` here?
The survival was inactive: 78%.

Which survival does the source give for `COc1ccc(-c2nc3sc(CCNS(=O)(=O)c4ccccc4)c(C)n3n2)cc1` here?
The survival was inactive: 57%.

For `O=C(NCC1CCN(Cc2ccccc2F)CC1)Nc1ccc(F)c(Cl)c1`, which survival is on record?
The survival was inactive: 73%.

With `Cc1ccnc(NC(=O)COc2ccc(Cl)cc2Cl)n1` as the compound, how does the survival read?
Its survival is inactive: 118%.

With `Cc1ccc2ncc3c(-c4ccc(F)cc4)nn(CC(=O)Nc4ccccc4C)c3c2c1` as the compound, how does the survival read?
Its survival is inactive: 78%.

How did the survival turn out when `Cc1ccc(S(=O)(=O)Cc2nc(-c3ccc(C(=O)NCCCOC(C)C)cc3)oc2C)cc1` was run?
The survival was inactive: 75%.

With `CC(C)c1ccc(N(CC(=O)O)S(=O)(=O)c2ccc3[nH]c(=O)c(=O)[nH]c3c2)cc1` as the compound, how does the survival read?
Its survival is inactive: 148%.

With `Cc1ccc2oc(C(=O)Nc3ccc(S(=O)(=O)Nc4nccc(C)n4)cc3)cc(=O)c2c1` as the compound, how does the survival read?
The survival was inactive: 86%.

`COc1ccc(Br)cc1CNC(=O)CN1C(=O)c2cccnc2Oc2ccc(C)cc21` was tested. Which survival did it give?
The survival was inactive: 94%.

For `CCN(CC)CCCNc1nc(C)nc2c1nnn2Cc1ccccc1`, which survival is on record?
The survival was inactive: 108%.

Which survival does the source give for `CSc1ncc2c(n1)-c1ccccc1N(Cc1ccccc1)S2(=O)=O` here?
Its survival is inactive: 78%.

Which survival does the source give for `CSc1ccc(CCNC(=O)CCCn2c(=O)c3cccn3c3ccccc32)cc1` here?
The survival was inactive: 46%.

With `CCOCCCN=C1Sc2nc3cc4c(cc3cc2CN1CC1CCCO1)OCO4` (centres undefined) as the compound, how does the survival read?
The survival was inactive: 111%.

`CCOc1ccc(C(=O)Nc2cc3c(cc2N2CCCC2)n(C)c(=O)c(=O)n3C)cc1OCC` was tested. Which survival did it give?
Its survival is inactive: 88%.

Which survival does the source give for `O=C1c2[nH]nc(-c3ccc(F)cc3)c2C(c2ccccc2F)N1c1ccccc1` (centres undefined) here?
Its survival is active: 4%.

With `Cc1ccc2[nH]c3c(=O)n(CC(=O)Nc4ccc(Br)cc4C)ncc3c2c1` as the compound, how does the survival read?
Its survival is inactive: 57%.

For `Cn1c(-c2ccccc2)nc2cc(N)ccc21`, which survival is on record?
Its survival is inactive: 105%.

How did the survival turn out when `Fc1ccc(Nc2nc3ccccc3n3cnnc23)c(F)c1` was run?
Its survival is inactive: 83%.

How did the survival turn out when `COC(=O)CCC/C=C1/SCC(NC(=O)c2ccccc2)/C1=N/O` (centres undefined) was run?
The survival was inactive: 91%.

Which survival does the source give for `O=C(c1ccc(F)cc1)n1nc(-c2cccnc2)nc1NCc1ccccc1` here?
Its survival is inactive: 81%.

`COc1ccc(-n2ccnc(NCCc3ccccc3)c2=O)cc1OC` was tested. Which survival did it give?
Its survival is inactive: 66%.

With `COc1cccc(C(=O)N(Cc2nc(-c3ccc(Cl)cc3)no2)C(C)C)c1OC` as the compound, how does the survival read?
The survival was inactive: 46%.

With `COc1ccc(NC(=O)c2nc(-c3ccc(C)cc3)n3c2CCCCC3)cc1` as the compound, how does the survival read?
The survival was inactive: 62%.

With `CCSc1nc2ccccc2c(OCc2ccccc2Cl)c1C(=O)OC` as the compound, how does the survival read?
The survival was inactive: 75%.

Which survival does the source give for `COc1ccc(Oc2nc3c(c(=O)n(Cc4ccc(Br)cc4)c(=O)n3C)n2C)cc1` here?
Its survival is inactive: 93%.

With `CCOC(=O)C1=NN(c2ccccc2)C(=O)C1` as the compound, how does the survival read?
Its survival is inactive: 91%.

Which survival does the source give for `Cc1ccc(N(CC(C)C)S(=O)(=O)c2nnc(NC(=O)C(C)C)s2)cc1` here?
The survival was inactive: 84%.

With `COc1ccccc1CNC(=O)COCc1cc(-c2cccs2)on1` as the compound, how does the survival read?
The survival was inactive: 69%.

With `CC(C)(C)c1ccc(C(=O)Nc2c(C(=O)c3ccc(F)cc3)oc3ccccc23)cc1` as the compound, how does the survival read?
Its survival is inactive: 73%.

Which survival does the source give for `Cc1nc2nc(CNC(=O)c3cccc(F)c3)nn2c(C)c1CCC(=O)Nc1cccc(Cl)c1` here?
Its survival is inactive: 150%.

How did the survival turn out when `Cc1nn(C(C)C(=O)Nc2ccccc2C(F)(F)F)c(=O)c2c1sc1ccccc12` (centres undefined) was run?
The survival was inactive: 106%.

Which survival does the source give for `COc1ccc(Cl)cc1NC(=O)c1cnc2sc(N3CCOCC3)nn2c1=O` here?
Its survival is inactive: 74%.

`Cc1ccc(CNC(=O)c2cnc3c(-c4ccc(F)cc4)c(C)nn3c2C)o1` was tested. Which survival did it give?
The survival was inactive: 78%.

Which survival does the source give for `Cc1ccc2oc(-c3ccc(Cl)c(NC(=O)c4cc5ccccc5o4)c3)nc2c1` here?
Its survival is inactive: 66%.

With `CN1CCN(CCNC(=O)c2cnn(-c3ccc(Cl)cc3)c2C2CCN(C(=O)OC(C)(C)C)CC2)CC1` as the compound, how does the survival read?
Its survival is inactive: 68%.

With `CCOC(=O)c1c(NC(=O)c2nc3n(n2)C(C(F)F)CC(C)N3)sc2c1CCCC2` (centres undefined) as the compound, how does the survival read?
Its survival is inactive: 104%.

With `CCN(C(=O)C1CCN(S(=O)(=O)c2c(C)noc2/C=C/c2ccc(C)cc2)CC1)c1cccc(C)c1` as the compound, how does the survival read?
The survival was inactive: 77%.

`CCOc1ccc(-c2nonc2NC(=O)c2oc3ccc(CC)cc3c2C)cc1` was tested. Which survival did it give?
The survival was inactive: 128%.

For `COc1ccc(NC(=O)CSc2nc3ccccc3c(=O)n2CCC(=O)NC2CCCCC2)c(OC)c1`, which survival is on record?
The survival was inactive: 84%.

How did the survival turn out when `CCC(=O)N1CCc2cc(S(=O)(=O)NC(Cc3ccccc3)C(=O)O)ccc21` (centres undefined) was run?
The survival was inactive: 19%.

With `Cc1ccc(S(=O)(=O)Nc2ccc3nc(-c4cccc(Cl)c4)oc3c2)cc1` as the compound, how does the survival read?
The survival was inactive: 29%.

`COc1ccc(CCNC(=O)C(C)n2nc(C)c3sc4ccccc4c3c2=O)c(OC)c1` (centres undefined) was tested. Which survival did it give?
Its survival is inactive: 73%.

With `O=C(CCCCCn1c(=O)c2sccc2n(Cc2ccccc2Cl)c1=O)NCc1ccc2c(c1)OCO2` as the compound, how does the survival read?
Its survival is inactive: 93%.

`CCc1ccccc1Nc1nn2c(=O)c3ccc(C(=O)NC(C)C)cc3nc2s1` was tested. Which survival did it give?
Its survival is inactive: 83%.

How did the survival turn out when `CCN(CCCNC(=O)c1cc2c(=O)n(C)c3ccccc3c2s1)c1ccccc1` was run?
Its survival is inactive: 73%.

`COc1ccc(N2C(=O)C(C)C(Cc3ccc(C)cc3)C2=O)cc1` (centres undefined) was tested. Which survival did it give?
The survival was inactive: 108%.

For `COc1cccc(-c2cn3c(n2)sc2cc(C(=O)NC4CCCCC4)ccc23)c1`, which survival is on record?
The survival was inactive: 85%.

For `O=C(Cn1c(=O)n(Cc2ccco2)c(=O)c2oc3ccccc3c21)Nc1ccccc1`, which survival is on record?
The survival was inactive: 61%.

For `COc1ccc(N2Cc3ccccc3C2=O)cc1`, which survival is on record?
The survival was inactive: 113%.

For `CC(=O)Nc1ccc2nc(SCc3ccccc3C#N)sc2c1`, which survival is on record?
The survival was inactive: 110%.

With `COc1cc(NC(=O)C2CCN(c3cnccn3)CC2)cc(OC)c1` as the compound, how does the survival read?
The survival was inactive: 83%.

Which survival does the source give for `C#CCn1c(O)c(N=NC(=O)Cn2nnc(-c3ccccc3)n2)c2cc(Br)ccc21` here?
Its survival is inactive: 105%.

Which survival does the source give for `COc1ccccc1N1CCN(C(=O)C2CCN(S(=O)(=O)c3cn(C)cn3)CC2)CC1` here?
Its survival is inactive: 64%.

For `COc1ccccc1NC(=O)CN1C(=O)C(c2ccc(F)cc2)=NC12CCCCC2`, which survival is on record?
The survival was inactive: 73%.

With `CCOCCCNC(=O)c1ccc2c(=O)n(CCc3ccccc3)c(=O)[nH]c2c1` as the compound, how does the survival read?
Its survival is inactive: 79%.

How did the survival turn out when `CCc1ccc2oc(-c3cc(NC(=O)c4cc(OC)c(OC)c(OC)c4)ccc3O)nc2c1` was run?
Its survival is inactive: 83%.

For `O=C(O)C(Cc1c[nH]c2ccccc12)Nc1ncnc2c1oc1ccccc12` (centres undefined), which survival is on record?
The survival was inactive: 101%.

How did the survival turn out when `COc1cccc(N2CCN(C(=O)c3cnn(-c4ccccc4Cl)c3C3CCN(C(=O)OC(C)(C)C)CC3)CC2)c1` was run?
Its survival is inactive: 121%.

How did the survival turn out when `COc1cccc(NC(=O)C2CCC(CNS(=O)(=O)c3csc(C(N)=O)c3)CC2)c1` (centres undefined) was run?
Its survival is inactive: 132%.

How did the survival turn out when `CC(=O)c1ccc(NC(=O)CSc2nc(=O)n(Cc3ccccn3)c3c2CCC3)cc1` was run?
Its survival is inactive: 73%.

With `O=C(CCC1N=C2c3ccccc3N=C(SCc3ccc(Cl)cc3)N2C1=O)NCc1cccs1` (centres undefined) as the compound, how does the survival read?
The survival was inactive: 60%.

Which survival does the source give for `COc1ccc(OCC(O)Cn2c(=N)n(CCN3CCCCC3)c3ccccc32)cc1` (centres undefined) here?
The survival was inactive: 75%.

With `Cc1ccc(NS(=O)(=O)c2ccc3oc(=O)c4ncn(C)c4c3c2)cc1C` as the compound, how does the survival read?
The survival was inactive: 76%.

Which survival does the source give for `COc1ccc(CCNc2ncnc3c2cnn3-c2ccc(C)c(Cl)c2)cc1` here?
The survival was inactive: 67%.

With `CN(C)c1ccc(CNC(=O)CN2C(=O)C3CCCCN3c3ccc(C(=O)N4CCCC4)cc32)cc1` (centres undefined) as the compound, how does the survival read?
The survival was inactive: 85%.

Which survival does the source give for `COc1ccccc1C(=O)n1nc(-c2ccccc2)nc1NCc1ccc(Cl)cc1` here?
The survival was inactive: 66%.

With `O=C(CCc1ccccc1)NC1CC(=O)N(c2cccc(F)c2)C1` (centres undefined) as the compound, how does the survival read?
The survival was inactive: 81%.

How did the survival turn out when `CCC(=O)N1CCc2cc(S(=O)(=O)NC(CC(C)C)C(=O)Nc3cccc(C)c3C)ccc21` (centres undefined) was run?
Its survival is inactive: 85%.

Which survival does the source give for `Cc1ccc(N2CCN(C(=O)c3cccn4c(=O)c5ccc(Cl)cc5nc34)CC2C)cc1` (centres undefined) here?
The survival was inactive: 92%.

Which survival does the source give for `Cc1ccc(S(=O)(=O)C(CNC(=O)C(=O)NCCc2ccc(Cl)cc2)c2ccco2)cc1` (centres undefined) here?
The survival was inactive: 121%.

With `CCC(C)NC(=O)c1cc2n(n1)CCCN(Cc1ccc(C)cc1)C2=O` (centres undefined) as the compound, how does the survival read?
The survival was inactive: 88%.

Which survival does the source give for `O=C1CCC(NC(=O)OCc2ccccc2)(C(=O)O)O1` (centres undefined) here?
The survival was inactive: 111%.

Which survival does the source give for `CC(=O)Nc1ccc(N=NN2CCCCC2)cc1` here?
Its survival is inactive: 99%.

Which survival does the source give for `CCn1cc(C(=O)N2CCN(c3ccccc3)CC2)c(=O)c2cc(S(=O)(=O)N(C)C)ccc21` here?
The survival was inactive: 83%.

With `COc1ccc(C(CNC(=O)c2oc3cc(C)c(C)cc3c2C)N2CCCCC2)cc1` (centres undefined) as the compound, how does the survival read?
Its survival is inactive: 102%.

With `Cc1ccc(Nc2nc(N)nc(CSc3nc4ccccc4s3)n2)cc1` as the compound, how does the survival read?
The survival was inactive: 32%.

With `O=C(Cc1ccc(F)cc1)NCCc1csc2nc(-c3ccccc3F)nn12` as the compound, how does the survival read?
Its survival is inactive: 84%.

`COc1ccc(CCNS(=O)(=O)c2c(C)nc3sccn3c2=O)cc1OC` was tested. Which survival did it give?
The survival was inactive: 87%.

`Cc1c2cnn(CC(=O)NCc3ccc(Cl)cc3)c(=O)c2c(C)n1Cc1ccc(F)cc1` was tested. Which survival did it give?
Its survival is inactive: 86%.

With `Cc1cc(NS(=O)(=O)c2ccc(NC(=O)COc3ccccc3Br)cc2)no1` as the compound, how does the survival read?
Its survival is inactive: 63%.

How did the survival turn out when `Cc1ccccc1Nc1nn2c(=O)c3ccc(C(=O)NCc4cccs4)cc3nc2s1` was run?
Its survival is inactive: 75%.

With `Cc1cc(C)cc(NC(=O)CSc2ccc(-c3cccs3)nn2)c1` as the compound, how does the survival read?
Its survival is inactive: 90%.

How did the survival turn out when `CSc1ccccc1S(=O)(=O)C(C)(C)C` was run?
The survival was inactive: 113%.

How did the survival turn out when `COc1ccc(S(=O)(=O)n2nc(C)c(S(=O)(=O)N3CCCCCC3)c2C)cc1C` was run?
The survival was inactive: 55%.

Which survival does the source give for `CC(=O)Nc1ccc(C)cc1-c1nc2ccccc2n(CC(=O)c2ccc(C)c(C)c2)c1=O` here?
Its survival is inactive: 84%.
